Measurements from the supplement of paper PMC12217912.
The other results are listed elsewhere or left out. Sequences were assembled here from the parent chain. Inactive controls read about 0.05.

B1: TEV protease; numbered along this chain (parent)
chain: MGESLFKGPRDYNPISSSICHLTNESDGHTTSLYGIGFGPFIITNKHLFRRNNGTLVVQSLHGVFKVKDTTTLQQHLVDGRDMIIIRMPKDFPPFPQKLKFREPQREERICLVTTNFQTKSMSSMVSDTSCTFPSGDGIFWKHWIQTKDGQCGSPLVSTRDGFIVGIHSASNFTNTNNYFTSVPKNFMELLTNQEAQQWVSGWRLNADSVLWGGHKVFMVKPEEPFQPVKEATQL

Variants of: B1
Assay: raw area under fraction-flipped curve 0-4 h after induction (AUC4h, not background-subtracted), DNA-recorder readout of cleavage of the substrate (dimensionless); higher = more cleavage of the substrate by the protease variant
Details: temperature: 34 °C; time window: 0-4 h after rhamnose induction
Procedure: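 In vivo DNA recorder in E. coli TOP10(DE3) ΔrhaA at 34 °C. Each TEVp single-site mutant (parent TEVp 0) is paired with a single-site variant of the 7-mer TEVs (canonical ENLYFQ|S). The substrate sits between flexible linkers in a Bxb1-sfGFP-TEVs-SsrA fusion, so cleavage stabilises Bxb1 and speeds flipping of a recombination array, read by NGS. The value is the raw area under the fraction-flipped curve over 0-4 h after rhamnose induction (AUC4h), with ≥20 reads per time point. It is not background-subtracted; inactive controls average about 0.047.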
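Further: Bxb1 expression induced with 0.2% (w/v) L-rhamnose at OD600 near 0.5, cultures sampled hourly, flipped fraction per protease–substrate barcode pair counted by paired-end Illumina sequencing.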

Row | Variant | area with substrate ENAYFQS | area with substrate ENCYFQS | area with substrate ENDYFQS | area with substrate ENEYFQS | area with substrate ENGYFQS | area with substrate ENHYFQS | area with substrate ENMYFQS | area with substrate ENNYFQS | area with substrate ENQYFQS | area with substrate ENRYFQS | area with substrate ENSYFQS | area with substrate ENTYFQS | area with substrate ENWYFQS | area with substrate ENYYFQS | area with substrate ENFYFQS | area with substrate ENIYFQS | area with substrate ENKYFQS | area with substrate ENPYFQS | area with substrate ENVYFQS
1 | MGESLFKGPRDYNPISSSICHLTNESDGHTTSLYGIGFGPFIITNKHLFRRNNGTLVVQSLHGVFKVKDTTTLQQHLVDGRDMIIIRMPKDFPPFPQKLKFREPQREERICLVTTNFQTWSMSSMVSDTSCTFPSGDGIFWKHWIQTKDGQCGSPLVSTRDGFIVGIHSASNFTNTNNYFTSVPKNFMELLTNQEAQQWVSGWRLNADSVLWGGHKVFMVKPEEPFQPVKEATQL [K120W] | 0.0661 | 0.0766 | 0.0557 | 0.0824 | 0.0556 | 0.0586 | 0.0738 | 0.051 | 0.0558 | 0.0735 | 0.061 | 0.0587 | 0.0426 | 0.0681 |  |  |  |  | 
2 | MGESLFKGPRDYNPISSSICHLTNESDGHTTSLYGIGFGPFIITNKHLFRRNNGTLVVQSLHGVFKVKDTTTLQQHLVDGRDMIIIRMPKDFPPFPQKLKFREPQREERICLVTTNFQTYSMSSMVSDTSCTFPSGDGIFWKHWIQTKDGQCGSPLVSTRDGFIVGIHSASNFTNTNNYFTSVPKNFMELLTNQEAQQWVSGWRLNADSVLWGGHKVFMVKPEEPFQPVKEATQL [K120Y] | 0.0493 | 0.0665 | 0.0574 |  | 0.0589 |  |  | 0.0711 | 0.0501 | 0.0574 | 0.0499 | 0.051 | 0.0088 |  | 0.0548 | 0.0939 | 0.0372 | 0.0508 | 0.0614
3 | MGESLFKGPRDYNPISSSICHLTNESDGHTTSLYGIGFGPFIITNKHLFRRNNGTLVVQSLHGVFKVKDTTTLQQHLVDGRDMIIIRMPKDFPPFPQKLKFREPQREERICLVTTNFQTKSMSSMVSATSCTFPSGDGIFWKHWIQTKDGQCGSPLVSTRDGFIVGIHSASNFTNTNNYFTSVPKNFMELLTNQEAQQWVSGWRLNADSVLWGGHKVFMVKPEEPFQPVKEATQL [D128A] | 0.0687 | 0.0627 | 0.0702 | 0.0634 | 0.0835 | 0.0936 |  | 0.0428 | 0.0615 | 0.0539 | 0.0723 | 0.07 |  |  | 0.0667 | 0.137 | 0.0631 |  | 0.129
4 | MGESLFKGPRDYNPISSSICHLTNESDGHTTSLYGIGFGPFIITNKHLFRRNNGTLVVQSLHGVFKVKDTTTLQQHLVDGRDMIIIRMPKDFPPFPQKLKFREPQREERICLVTTNFQTKSMSSMVSCTSCTFPSGDGIFWKHWIQTKDGQCGSPLVSTRDGFIVGIHSASNFTNTNNYFTSVPKNFMELLTNQEAQQWVSGWRLNADSVLWGGHKVFMVKPEEPFQPVKEATQL [D128C] | 0.0636 | 0.055 |  | 0.0595 | 0.0662 | 0.064 | 0.0755 |  | 0.0595 |  | 0.0479 | 0.0561 |  |  | 0.0587 |  | 0.0713 |  | 0.0836
5 | MGESLFKGPRDYNPISSSICHLTNESDGHTTSLYGIGFGPFIITNKHLFRRNNGTLVVQSLHGVFKVKDTTTLQQHLVDGRDMIIIRMPKDFPPFPQKLKFREPQREERICLVTTNFQTKSMSSMVSFTSCTFPSGDGIFWKHWIQTKDGQCGSPLVSTRDGFIVGIHSASNFTNTNNYFTSVPKNFMELLTNQEAQQWVSGWRLNADSVLWGGHKVFMVKPEEPFQPVKEATQL [D128F] | 0.0593 |  | 0.067 | 0.0822 | 0.0656 | 0.0615 | 0.119 |  | 0.0581 |  |  | 0.0578 | 0.045 |  | 0.103 |  | 0.0516 |  | 0.0942
6 | MGESLFKGPRDYNPISSSICHLTNESDGHTTSLYGIGFGPFIITNKHLFRRNNGTLVVQSLHGVFKVKDTTTLQQHLVDGRDMIIIRMPKDFPPFPQKLKFREPQREERICLVTTNFQTKSMSSMVSITSCTFPSGDGIFWKHWIQTKDGQCGSPLVSTRDGFIVGIHSASNFTNTNNYFTSVPKNFMELLTNQEAQQWVSGWRLNADSVLWGGHKVFMVKPEEPFQPVKEATQL [D128I] | 0.0628 | 0.0608 | 0.0761 | 0.0594 | 0.0707 |  |  |  |  | 0.0568 | 0.0563 | 0.0668 |  |  |  |  |  |  | 0.08
7 | MGESLFKGPRDYNPISSSICHLTNESDGHTTSLYGIGFGPFIITNKHLFRRNNGTLVVQSLHGVFKVKDTTTLQQHLVDGRDMIIIRMPKDFPPFPQKLKFREPQREERICLVTTNFQTKSMSSMVSLTSCTFPSGDGIFWKHWIQTKDGQCGSPLVSTRDGFIVGIHSASNFTNTNNYFTSVPKNFMELLTNQEAQQWVSGWRLNADSVLWGGHKVFMVKPEEPFQPVKEATQL [D128L] | 0.0612 | 0.0825 | 0.0586 | 0.0429 |  |  | 0.105 |  | 0.0648 |  |  | 0.0628 |  |  |  | 0.151 |  | 0.0585 | 0.0903
8 | MGESLFKGPRDYNPISSSICHLTNESDGHTTSLYGIGFGPFIITNKHLFRRNNGTLVVQSLHGVFKVKDTTTLQQHLVDGRDMIIIRMPKDFPPFPQKLKFREPQREERICLVTTNFQTKSMSSMVSMTSCTFPSGDGIFWKHWIQTKDGQCGSPLVSTRDGFIVGIHSASNFTNTNNYFTSVPKNFMELLTNQEAQQWVSGWRLNADSVLWGGHKVFMVKPEEPFQPVKEATQL [D128M] | 0.0741 | 0.0665 | 0.0617 | 0.0639 | 0.0606 | 0.0598 | 0.117 |  | 0.0579 | 0.0528 | 0.0563 |  |  | 0.0477 | 0.0686 |  | 0.11 |  | 
9 | MGESLFKGPRDYNPISSSICHLTNESDGHTTSLYGIGFGPFIITNKHLFRRNNGTLVVQSLHGVFKVKDTTTLQQHLVDGRDMIIIRMPKDFPPFPQKLKFREPQREERICLVTTNFQTKSMSSMVSNTSCTFPSGDGIFWKHWIQTKDGQCGSPLVSTRDGFIVGIHSASNFTNTNNYFTSVPKNFMELLTNQEAQQWVSGWRLNADSVLWGGHKVFMVKPEEPFQPVKEATQL [D128N] | 0.0624 | 0.0835 | 0.0225 | 0.0659 |  |  | 0.11 | 0.0522 | 0.0534 | 0.0692 |  | 0.0617 |  |  | 0.0652 | 0.11 | 0.0595 | 0.0558 | 
